Laboratory results from PubChem BioAssay AID1030 (National Center for Advancing Translational Sciences (NCATS), 2008).
About 16,000 (7.3%) of roughly 220,000 compounds were called active. Inconclusive results, whose numbers are uncertain, are shown with a selection of clear calls. Calls come from the whole dose curve; as a rule, active = well fitted inhibition curve with a large enough effect (not every such curve was filed as active); inconclusive = small, poorly fitted or top-dose-only effect, or another doubt; inactive = no such curve, though single readings can be large or run the other way. Potencies of inconclusive entries are left out as doubtful fits.

target: Aldehyde dehydrogenase 1A1 (Homo sapiens) (UniProt P00352); assay: qHTS Assay for Inhibitors of Aldehyde Dehydrogenase 1 (ALDH1A1); settings: Purified ALDH1A1, NADH fluorescence, propionaldehyde substrate; series mostly up to 75.3 µM
Potency is the fitted concentration of half-maximal effect; tags give direction and shape of the fitted curve.

Chain of UniProt P00352 (P00352 whole entry, looked up): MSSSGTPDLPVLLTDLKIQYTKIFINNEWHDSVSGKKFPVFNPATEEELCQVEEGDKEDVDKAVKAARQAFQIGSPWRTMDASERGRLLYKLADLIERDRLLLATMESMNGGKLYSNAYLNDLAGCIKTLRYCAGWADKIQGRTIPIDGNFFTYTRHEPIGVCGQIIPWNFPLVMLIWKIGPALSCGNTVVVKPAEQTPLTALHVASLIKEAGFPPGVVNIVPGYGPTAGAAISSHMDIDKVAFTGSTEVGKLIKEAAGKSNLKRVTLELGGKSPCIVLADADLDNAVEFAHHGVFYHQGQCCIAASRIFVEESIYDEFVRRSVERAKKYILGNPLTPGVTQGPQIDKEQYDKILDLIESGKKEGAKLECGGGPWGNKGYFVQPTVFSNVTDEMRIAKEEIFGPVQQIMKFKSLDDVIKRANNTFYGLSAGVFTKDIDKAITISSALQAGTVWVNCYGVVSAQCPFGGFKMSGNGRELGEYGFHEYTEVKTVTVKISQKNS

SMILES	Potency
COc1ccc(CNC(=O)C(C#N)c2nc3ccccc3nc2N2CCCC2)cc1 (stereo not drawn)	inconclusive [inhibitor, partial curve]
Cc1cccn2c(=O)c3cc(C(=O)N4COCC4(C)C)n(C)c3nc12	inconclusive [inhibitor, partial curve]
Cc1nnc(SCC(=O)N2CCc3ccccc32)n1-c1ccccc1	inactive
Cc1[nH]c2ccccc2c1SCC(=O)Nc1nccs1	inactive
CCOc1ccc(NS(=O)(=O)c2ccc(NC(C)=O)c(OC)c2)cc1	active: 5.01 µM
S=C(NC1CCCCC1)N(CCc1nc2ccccc2[nH]1)C1CCCC1	inconclusive [inhibitor, single point]
CC(C)c1nc2ccccc2c2nnc(SCC(=O)NCc3ccco3)n12	inactive
Brc1cccc(-c2nnc3n2CCCCC3)c1	inactive
O=C(NC1CCN(C(=S)NCCc2ccccc2)CC1)C1CCCCC1	inactive
O=C(NCc1ccco1)c1cccs1	inconclusive [inhibitor, single point]
C(=Nc1ccc(Nc2ccccc2)cc1)c1ccc2ccccc2c1	inconclusive [inhibitor, single point]
Cc1nccn1CCc1n[nH]c(=S)n1Cc1ccccc1	inconclusive [inhibitor, single point]
COc1ccc(CN2CCN(Cc3nc4ccccc4s3)CC2CCO)c(C)c1C (stereo not drawn)	inconclusive [inhibitor, partial curve]
Cc1c(NC(=O)c2ccc(-c3ccc([N+](=O)[O-])cc3Cl)o2)c(=O)n(-c2ccccc2)n1C	inactive
Cc1c(Cl)cccc1NC(CC(=O)c1ccccc1)C(=O)O (stereo not drawn)	active: 0.316 µM
CCc1ccccc1NCC(=O)Nc1ccccc1C(=O)OC	inconclusive [inhibitor, single point]
Cc1onc(-c2ccccc2)c1CNC(=O)Nc1cccc(Cl)c1	inconclusive [inhibitor, single point]
COc1ccc(N2C(=O)CC(Nc3ccc(N4CCOCC4)cc3)C2=O)c(OC)c1 (stereo not drawn)	inconclusive [inhibitor, single point]
CCOC(=O)CSc1nnc(CSc2nc3ccccc3c(=O)[nH]2)n1-c1ccccc1	inconclusive [inhibitor, single point]
CCOc1ccc(CCNC(=O)c2cc3sccc3n2CC)cc1OCC	inconclusive [inhibitor, single point]
CC1CCN(C(=O)c2ccc(S(=O)(=O)Cc3cccc(F)c3)c([N+](=O)[O-])c2)CC1	active: 25.1 µM
CCCCc1cc2c(cn1)=C(OC(=O)c1cnc3ccccc3n1)C(C)(OC(=O)CC)C(=O)C=2 (stereo not drawn)	active: 3.16 µM
O=C(O)CCc1ccc(-c2ccc(F)cc2)n1CC(=O)O	inconclusive [inhibitor, single point]
CC1CCCCN1C(=O)CSc1nnc(-c2cccnc2)n1C1CCCCC1 (stereo not drawn)	inactive
CCn1cc(C(=O)Nc2ccc3c(c2)OCCO3)c2cc(OC)c(OC)cc2c1=O	inconclusive [inhibitor, single point]

SMILES	Potency
CCc1nc2sc3c(c2c(=O)n1NC(=O)CCl)CCCC3	active: 12.6 µM
CCN(CCO)c1nc(SC)nc2c1sc1nc(-c3ccco3)c3c(c12)CCC3	active: 2 µM
COc1ccc(OC)c(Nc2cc(C(=O)NCCCN3CCOCC3)c3ccccc3n2)c1	inactive
CCOC(=O)c1c(NC(=O)C2CCCO2)sc2c1CCC2 (stereo not drawn)	active: 22.4 µM
COc1cccc(/C=N/N2C(=O)NC3(CCCCC3)C2=O)c1O	inconclusive [inhibitor, single point]
CC1=C(C#N)C(c2cccnc2)C2=C(CC(c3ccc(Cl)cc3)CC2=O)N1 (stereo not drawn)	inconclusive [inhibitor, partial curve]
Cc1c(N=C2NC(=O)C(CC(=O)Nc3ccc(Cl)cc3)S2)c(=O)n(-c2ccccc2)n1C (stereo not drawn)	inconclusive [inhibitor, single point]
Cc1ccc(OCC(=O)N/N=C/c2cc([N+](=O)[O-])ccc2N2CCCCC2)cc1	inconclusive [inhibitor, single point]
COc1ccc(NC(=O)CC2C(=O)OCC3CCCCN32)cc1Cl (stereo not drawn)	inconclusive [inhibitor, single point]
c1cncc(-c2nc(N3CCOCC3)c3c4c(sc3n2)CCC4)c1	inconclusive [inhibitor, partial curve]
O=C(CSCc1ccccc1)Nc1cc([N+](=O)[O-])ccc1F	inconclusive [inhibitor, single point]
COc1ccc(OC)c(-c2csc(NC(=O)CSc3ccc([N+](=O)[O-])cc3)n2)c1	inconclusive [inhibitor, single point]
S=C(Nc1cccc(Cl)c1)NC1CCCCC1	inactive
O=C(NCc1ccco1)c1ccc2ccccc2c1	inactive
COCC(=O)Nc1nc2n(n1)C(c1ccccc1)CC(c1ccc(OC)cc1)N2 (stereo not drawn)	inconclusive [inhibitor, single point]
COc1ccc(NC(=O)Nc2cc3oc4ccccc4c3cc2OC)cc1	inconclusive [inhibitor, single point]
CCC(C)NC(=O)CSC1=Nc2ccccc2C2=NC(CC(=O)NCc3ccc(F)cc3)C(=O)N12 (stereo not drawn)	inconclusive [inhibitor, single point]
O=[N+]([O-])c1cc([N+](=O)[O-])c2c(=Nc3ccccc3)n(-c3ccccc3)n(O)c2c1	active: 0.355 µM
N#Cc1cnc(NN)nc1	inconclusive [inhibitor, single point]
O=S(=O)(NCCc1ccccn1)c1ccc(F)c(F)c1	inactive
CCOc1ncccc1C(=O)Nc1nnc(C(CC)CC)s1	active: 4.47 µM
Cn1cccc1/C=N/n1cnnc1	inconclusive [inhibitor, single point]
CCOC(=O)c1ccc(NCc2ccc(N(C)C)cc2)cc1	inconclusive [inhibitor, single point]
CC(C)Oc1ccc(C(CC(=O)NCc2ccco2)c2ccccc2)cc1 (stereo not drawn)	inconclusive [inhibitor, partial curve]
CN(O)/C=N/C(=S)Nc1ccc(Cl)cc1Cl	active: 1.58 µM

SMILES	Potency
CC(=O)O[C@@H]1C[C@H]2C(C)(C)C(=O)C=C[C@]2(C)[C@H]2CC[C@@]3(C)[C@H](c4ccoc4)OC(=O)[C@H]4O[C@]43[C@@]21C	inactive
O=C(NNc1nc2ccccc2s1)C1CC1	inactive
COc1ccc(/C=N\NS(=O)(=O)c2ccc(Br)cc2)cc1COc1ccccc1[N+](=O)[O-]	inconclusive [inhibitor, single point]
CCOC(=O)c1cc(-c2ccccc2)nc2c1c(C)nn2-c1ccccn1	inconclusive [inhibitor, partial curve]
CCOC(=O)c1c(C)c(C(=O)N2CCN(c3ccccc3)CC2)c(C)n1C	inactive
CCCCN(C)CCNC(=O)c1ccc(Cn2c(=S)[nH]c3ccc(Br)cc3c2=O)cc1	inconclusive [inhibitor, single point]
COc1ccc(N(C)C(=O)c2ccc3nc(-c4ccccc4)c(-c4ccccc4)nc3c2)cc1	inconclusive [inhibitor, single point]
c1ccc2c(SCc3cn4ccccc4n3)nncc2c1	inactive
COCCNC(=O)Nc1ccc2nc(-c3cccs3)c(-c3cccs3)nc2c1	inconclusive [inhibitor, single point]
CCOC(=O)c1sc(NC(=O)c2cc3n(n2)C(C(F)(F)F)CC(c2ccccc2)N3)c(C(=O)OCC)c1C (stereo not drawn)	inconclusive [inhibitor, partial curve, poor fit]
Cc1onc(-c2c(Cl)cccc2Cl)c1C(=O)c1ccccc1	inconclusive [inhibitor, single point]
N#C/C(=C\c1c(N2CCCCCC2)nc2ccccn2c1=O)C(=O)NC1CCS(=O)(=O)C1 (stereo not drawn)	inconclusive [inhibitor, full curve]
CC(/C=N/n1c(-c2ccco2)n[nH]c1=S)=C\c1ccco1	active: 31.6 µM
O=C1NC(=O)c2cc(Nc3ccccc3)c(Nc3ccccc3)cc21	inconclusive [inhibitor, single point]
Cc1csc(SCCn2c(Br)nc3c2c(=O)[nH]c(=O)n3C)n1	inactive
N#Cc1c(-c2ccccc2Cl)cc(-c2ccccc2)[nH]c1=S	active: 10 µM
COc1ccc(C2C=C(c3ccc(F)cc3)NC(=S)N2)cc1OC (stereo not drawn)	inconclusive [inhibitor, partial curve]
CC1=C(C(=O)Nc2cccnc2)C(c2ccncc2)n2nnnc2N1 (stereo not drawn)	inactive
Cc1ccc(-c2nc3ccccc3c(C(=O)NCc3cccs3)c2C)cc1	active: 23.8 µM
C=CCc1cccc2cc(C(=O)Nc3ccccc3C(=O)O)c(=O)oc12	inconclusive [inhibitor, single point]
COc1ccc(OC)c2c1sc(=NC(=O)C(C)(C)C)n2C	inconclusive [inhibitor, single point]
CCCCCCC1CC(=O)NC(=O)N1 (stereo not drawn)	inactive
Cc1c(Cl)cnc(NC(=O)COC(=O)c2cccc(S(=O)(=O)N3CCc4ccccc4C3)c2)c1Cl	inconclusive [inhibitor, partial curve]
